The source holds more than one record for some entries. The other results are left out here. There may be further records. Values given together are repeats (runs, samples, wells, individuals or studies). Signs of the kind (2×) say how often a value occurs here. Dates in brackets are months of testing.
System: 349418-098-R-PDC complex spheroid viability
Assay: Anticancer human tumor 349418-098-R-PDC patient-derived lung adenocarcinoma cell line growth inhibition [RAS]
Details: for viability, T/C: stronger effect = lower value; for IC50: compound alone
Text: RAS pathway inhibitors in Combinations in Complex Spheroids
A high-throughput screen of multi-cell type tumor spheroids was designed to identify active combinations of RAS pathway inhibitors and targeted small molecules. Complex spheroids include a stromal component modeled by human endothelial cells (HUVEC) and fibroblasts modeled by human mesenchymal stem cells (MSCs). The concentration ranges selected for each drug and investigational agent were based upon clinically achievable concentrations if the clinical Cmax of the agent was known.
Compounds. The drugs and investigational agents: abemaciclib (NSC768073), cobimetinib (NSC768068), divarasib (GDC6063, NSC841802), docetaxel (NSC628503), GDC-1971 (RLY-1971, NSC841576), gemcitabine (NSC613327), inavolisib (NSC800729), ipatasertib (NSC767898), KB-0742 (NSC834161), MRTX-1133 (NSC836407), osimertinib (NSC779217), RMC-4630 (NSC839698), RMC-6236 (NSC851965), RMC-6291 (NSC852671), Ro-3306 (NSC812927), sapanisertib (NSC764658), SN-38 (NSC673596), staurosporine (NSC755774), SY5609 (NSC837396), and tovorafenib (DAY101, NSC766906), were obtained from the National Cancer Institute (NCI) Developmental Therapeutics Program Chemical Repository. The FDA-approved anticancer drug set is available from the NCI Developmental Therapeutics Program. […] The stock solutions were prepared in dimethyl sulfoxide (DMSO, Sigma-Aldrich, St. Louis, MO, cat. D2650) at 800-fold the tested concentration and stored at -70 degrees C prior to their use. All drugs and investigational agents were tested over a range starting from a high concentration at or near the clinical Cmax and decreasing in half-log increments. If the clinical Cmax for an agent had not been determined, the highest concentration tested was 10 microM.
Cell Culture. All cells were maintained in an incubator at 37 degrees C and 5% CO2 with 95% humidity. The PDC lines were cultured according to standard operating procedures established by the NCI PDMR. All PDCs were thawed and cultured in Matrigel-coated flasks prepared with a working solution of 1X Ham's F-12 nutrient mix, without supplementation (Invitrogen, Waltham, MA, cat. 11765054), 100 U/mL penicillin-streptomycin (Invitrogen, cat. 15140122), and 2.5% Matrigel (Corning Inc., Corning, NY, cat. 354248) for the first three passages. The 362531-283-R-J2-PDC and 782815-120-R-J1-PDC lines were cultured in 6C/Colon 1B media, which includes advanced DMEM/F-12 (Thermo Fisher Scientific, cat. 12634028), 10 mM HEPES (Thermo Fisher Scientific, cat. 15630080), 1X GlutaMAX supplement (Thermo Fisher Scientific, cat. 35050061), 0.1 mg/mL primocin (InvivoGen, San Diego, CA, cat. ant-pm-2), 10% defined fetal bovine serum, heat inactivated (HyClone Laboratories Inc., Logan, UT, cat. SH30070.03HI), 50% L-WRN conditioned media (ATCC, cat. CRL-3276), 1.25 mM N-Acetyl-L-cysteine (Sigma-Aldrich, cat. A9165), 10 mM nicotinamide (Sigma-Aldrich, cat. N0636), 1X B-27 supplement (Thermo Fisher Scientific, cat. 17504044), 1X N-2 supplement (Thermo Fisher Scientific, cat. 17502048), 50 ng/mL human EGF (Thermo Fisher Scientific, cat. PHG0311), and 10 microM Y-27632 dihydrochloride (Tocris Bioscience, cat. 1254). The K12877-001-R-J1-PDC line was cultured in 6I media, which includes all 6C/Colon 1B media plus 10 ng/mL human FGF-10 (PeproTech, cat. 100-26), 1 ng/mL human FGF-2 (PeproTech, cat. 100-18B), 1 µM prostaglandin E2 (Tocris Bioscience, cat. 2296), […] hydrocortisone (Sigma-Aldrich, cat. H4001), and […] bovine insulin (Sigma-Aldrich, cat. I6634). The K86415-001-R-J1-PDC line was cultured in 6D media, which includes all 6C/Colon 1B media components minus the L-WRN conditioned media. The 485176-168-R4-J1-PDC was cultured in PANC media, which includes all 6C/Colon 1B media plus 100 ng/mL human FGF-10 (PeproTech, cat. 100-26), 500 nM SB-431542 (Selleckchem, cat. S1067), and 10 nM gastrin (Tocris Bioscience, cat. 3006). […]
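Also: spheroids exposed to compound for seven days before viability readout.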

## NC1c2ccccc2OC12CCN(c1cnc3c(N4CCCc5ncccc54)n[nH]c3n1)CC2 (stereo not drawn)
Compound alone 0.1 µM
  viability, T/C: 78.9%, 85.9% [2024-05] and 98.7%, 64.9% [2024-06]
Compound alone 0.316 µM
  viability, T/C: 108%, 105% [2024-05] and 99.5%, 73% [2024-06]
Compound alone 1 µM
  viability, T/C: 97.5%, 86.8% [2024-05] and 55.4%, 83.8% [2024-06]

## CCN1CCN(Cc2ccc(Nc3ncc(F)c(-c4cc(F)c5nc(C)n(C(C)C)c5c4)n3)nc2)CC1
  IC50: 8.39 nM, 13.6 nM [2024-05] and 31.3 nM, 36.1 nM [2024-06]
Compound alone 0.00316 µM
  viability, T/C: 77.4%, 95.8% [2024-05] and 84.3%, 61.5% [2024-06]
Compound alone 0.0316 µM
  viability, T/C: 27.2%, 38.4% [2024-05] and 58.9%, 52.8% [2024-06]

## Cc1nc(N2CCC3(CC2)COC(C)C3N)c(CO)nc1Sc1ccnc(N)c1Cl (stereo not drawn)
Compound alone 1 µM
  viability, T/C: 94.4%, 108% [2024-05] and 88.8%, 75.1% [2024-06]

## C[C@@H](NC(=O)c1ncnc(N)c1Cl)c1ncc(C(=O)Nc2cc(C(F)(F)F)c(Cl)cn2)s1
Compound alone 0.0316 µM
  viability, T/C: 91.7%, 106% [2024-05] and 74.7%, 85% [2024-06]
Compound alone 3.16 µM
  viability, T/C: 29.9%, 36.5% [2024-05] and 56.3%, 45.2% [2024-06]

## CCn1c(-c2cc(N3CCN(C)CC3)cnc2C(C)OC)c2c3cc(ccc31)-c1csc(n1)CC(NC(=O)C1CC1C)C(=O)N1CCCC(N1)C(=O)OCC(C)(C)C2 (stereo not drawn)
Compound alone 0.00949 µM
  viability, T/C: 102, 99.5, 84.5, 111, 108, 109, 92.9, 100%
Compound alone 0.3 µM
  viability, T/C: 108, 114, 104, 130, 111 (2×), 116, 105%

## CC(C)NCC(C(=O)N1CCN(c2ncnc3c2C(C)CC3O)CC1)c1ccc(Cl)cc1 (stereo not drawn)
Compound alone 0.0316 µM
  viability, T/C: 102%, 106% [2024-05] and 67.1%, 101% [2024-06]

## C=CC(=O)Nc1cc(Nc2nccc(-c3cn(C)c4ccccc34)n2)c(OC)cc1N(C)CCN(C)C
Compound alone 0.01 µM
  viability, T/C: 71.9%, 85.1% [2024-05] and 98.5%, 67.3% [2024-06]
Compound alone 0.0316 µM
  viability, T/C: 107%, 103% [2024-05] and 81.6%, 83.5% [2024-06]
Compound alone 0.1 µM
  viability, T/C: 109%, 99.4% [2024-05] and 88.8%, 80.5% [2024-06]

## CC(Nc1ccc2c(c1)OCCn1cc(N3C(=O)OCC3C(F)F)nc1-2)C(N)=O (stereo not drawn)
  IC50: 186 nM, 96.9 nM [2024-05] and 49.2 nM, 75.1 nM [2024-06]
Compound alone 3.16 µM
  viability, T/C: 89.9%, 21.8% [2024-05] and 11.1%, 13.9% [2024-06]

## CC(C)n1nc(-c2ccc3oc(N)nc3c2)c2c(N)ncnc21
Compound alone 0.000316 µM
  viability, T/C: 97.7%, 104% [2024-05] and 95.5%, 72.7% [2024-06]
Compound alone 0.001 µM
  viability, T/C: 56.2%, 73.4% [2024-05] and 83.6%, 57.8% [2024-06]

## C#Cc1c(F)ccc2cc(O)cc(-c3ncc4c(N5CC6CCC(C5)N6)nc(OCC56CCCN5CC(F)C6)nc4c3F)c12 (stereo not drawn)
Compound alone 0.1 µM
  viability, T/C: 95, 96.9, 89.9, 94.5, 87.3, 107, 96.1, 114%
Compound alone 0.316 µM
  viability, T/C: 94, 97.5, 102, 91.5, 79.1, 88, 113, 101%
Compound alone 1 µM
  viability, T/C: 90.9, 92.9, 105, 95.3, 112, 92.8, 102, 84.1%
Compound alone 3.16 µM
  viability, T/C: 80.7, 86.4, 102, 93.9, 89.3, 71.8, 92.9, 90.9%

## CCn1c(-c2cccnc2C(C)OC)c2c3cc(ccc31)N1CCOC(CC(NC(=O)C(C(C)C)N(C)C(=O)C3(F)CCN(C(=O)C#CC(C)(C)N(C)C)CC3)C(=O)N3CCCC(N3)C(=O)OCC(C)(C)C2)C1 (stereo not drawn)
Compound alone 0.000949 µM
  viability, T/C: 99.5, 115, 105, 93.6, 123, 107, 99, 110%
Compound alone 0.00949 µM
  viability, T/C: 119 (2×), 118, 108, 88.3, 113, 124, 100%
Compound alone 0.03 µM
  viability, T/C: 94.5, 113, 90.2, 109, 102, 103, 121, 92.6%
Compound alone 0.0949 µM
  viability, T/C: 102, 111, 86, 99.5, 105, 116, 88.3, 96.4%
Compound alone 0.3 µM
  viability, T/C: 113, 101, 90.1, 94.2, 105, 78, 108, 94.7%

## CCC(CC)c1cc(NC2CCC(N)C2)n2nccc2n1 (stereo not drawn)
Compound alone 0.1 µM
  viability, T/C: 106%, 99.3% [2024-05] and 95.6%, 126% [2024-06]
Compound alone 0.316 µM
  viability, T/C: 70.3%, 78.8% [2024-05] and 95.7%, 66.4% [2024-06]

## C=CC(=O)N1CCN(c2nc(OCC3CCCN3C)nc3c(F)c(-c4nc(N)cc(C)c4C(F)(F)F)c(Cl)cc23)C(C)C1 (stereo not drawn)
Compound alone 0.00316 µM
  viability, T/C: 107%, 95.2% [2024-05] and 64.3, 88.9, 106 (2×), 81.7, 88.8, 68.7, 94.9, 96.5, 79.1% [2024-06]
Compound alone 0.01 µM
  viability, T/C: 100%, 89.3% [2024-05] and 76.9, 100, 95.6, 88.5, 87.5, 76.4, 92, 89.8, 84.5, 107% [2024-06]
Compound alone 0.0316 µM
  viability, T/C: 106%, 104% [2024-05] and 93.7 (2×), 99.3, 106, 99.5, 119 (2×), 110, 89.7, 92.1% [2024-06]

Source: PubChem BioAssay AID2060904 (Molecular Pharmacology Branch, DTP, NCI, 2025)
